# In the supplement of paper PMC8728848:
# Some of the results follow.
# Columns and labels:
# Assay in all cases: glycan array binding signal (z-score within array); higher = stronger binding
# Details in all cases: glycan notation: IUPAC condensed, linker removed
# [1] = molecular target: Neu5Ac(a2-3)[Neu5Ac(a2-6)]GalNAc
# Outline: (§1)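 The binding signal is a Z-score computed within each array. Data were drawn from 3228 arrays in the Consortium for Functional Glycomics database, restricted to those with a known protein sequence. Scores were averaged over arrays of the same protein sequence at different concentrations or buffers, and over linkers, and negative values can be taken as non-binding.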
# Neu5Ac(a2-6)Gal = molecular target: Neu5Ac(a2-6)Gal
# Outline: as §1
# Neu5Ac(a2-6)Gal(b1-4)Glc = molecular target: Neu5Ac(a2-6)Gal(b1-4)Glc
# Outline: as §1
# [2] = molecular target: Neu5Ac(a2-6)Gal(b1-4)GlcNAc
# Outline: as §1
# [3] = molecular target: Neu5Ac(a2-6)Gal(b1-4)GlcNAc(b1-2)Man(a1-3)Man(b1-4)GlcNAc(b1-4)GlcNAc
# Outline: as §1
# [4] = molecular target: Neu5Ac(a2-6)Gal(b1-4)GlcNAc(b1-2)Man(a1-3)[Gal(b1-4)GlcNAc(b1-2)Man(a1-6)]Man(b1-4)GlcNAc(b1-4)GlcNAc
# Outline: as §1
# [5] = molecular target: Neu5Ac(a2-6)Gal(b1-4)GlcNAc(b1-2)Man(a1-3)[GlcNAc(b1-2)Man(a1-6)]Man(b1-4)GlcNAc(b1-4)GlcNAc
# Outline: as §1
# [6] = molecular target: Neu5Ac(a2-6)Gal(b1-4)GlcNAc(b1-2)Man(a1-3)[GlcNAc(b1-2)Man(b1-4)GlcNAc(b1-2)Man(a1-6)]Man(b1-4)GlcNAc(b1-4)GlcNAc
# Outline: as §1
# [7] = molecular target: Neu5Ac(a2-6)Gal(b1-4)GlcNAc(b1-2)Man(a1-3)[Man(a1-6)]Man(b1-4)GlcNAc(b1-4)GlcNAc
# Outline: as §1
# [8] = molecular target: Neu5Ac(a2-6)Gal(b1-4)GlcNAc(b1-2)Man(a1-3)[Neu5Ac(a2-6)Gal(b1-4)GlcNAc(b1-2)Man(a1-6)]Man(b1-4)GlcNAc(b1-4)GlcNAc
# Outline: as §1
# [9] = molecular target: Neu5Ac(a2-6)Gal(b1-4)GlcNAc(b1-2)Man(a1-6)Man(b1-4)GlcNAc(b1-4)GlcNAc
# Outline: as §1
# [10] = molecular target: Neu5Ac(a2-6)Gal(b1-4)GlcNAc(b1-2)Man(a1-6)[Gal(b1-4)GlcNAc(b1-2)Man(a1-3)]Man(b1-4)GlcNAc(b1-4)GlcNAc
# Outline: as §1
# [11] = molecular target: Neu5Ac(a2-6)Gal(b1-4)GlcNAc(b1-2)Man(a1-6)[GlcNAc(b1-2)Man(a1-3)]Man(b1-4)GlcNAc(b1-4)GlcNAc
# Outline: as §1
# [12] = molecular target: Neu5Ac(a2-6)Gal(b1-4)GlcNAc(b1-2)Man(a1-6)[Man(a1-3)]Man(b1-4)GlcNAc(b1-4)GlcNAc
# Outline: as §1
# [13] = molecular target: Neu5Ac(a2-6)Gal(b1-4)GlcNAc(b1-3)Gal(b1-3)GlcNAc
# Outline: as §1
# [14] = molecular target: Neu5Ac(a2-6)Gal(b1-4)GlcNAc(b1-3)Gal(b1-4)GlcNAc
# Outline: as §1
# [15] = molecular target: Neu5Ac(a2-6)Gal(b1-4)GlcNAc(b1-3)Gal(b1-4)GlcNAc(b1-3)Gal(b1-4)GlcNAc
# Outline: as §1
# [16] = molecular target: Neu5Ac(a2-6)Gal(b1-4)GlcNAc(b1-3)Gal(b1-4)[Fuc(a1-3)]GlcNAc(b1-3)Gal(b1-4)[Fuc(a1-3)]GlcNAc
# Outline: as §1
# [17] = molecular target: Neu5Ac(a2-6)Gal(b1-4)GlcNAc(b1-3)GalNAc
# Outline: as §1
# [18] = molecular target: Neu5Ac(a2-6)Gal(b1-4)GlcNAc6S
# Outline: as §1
# Neu5Ac(a2-6)GalNAc = molecular target: Neu5Ac(a2-6)GalNAc
# Outline: as §1
# [19] = molecular target: Neu5Ac(a2-6)GalNAc(b1-4)GlcNAc
# Outline: as §1
# [20] = molecular target: Neu5Ac(a2-6)GlcNAc(b1-4)GlcNAc
# Outline: as §1
# [21] = molecular target: Neu5Ac(a2-6)GlcNAc(b1-4)GlcNAc(b1-4)GlcNAc
# Outline: as §1
# Neu5Ac(a2-8)Neu5Ac = molecular target: Neu5Ac(a2-8)Neu5Ac
# Outline: as §1
# [22] = molecular target: Neu5Ac(a2-8)Neu5Ac(a2-3)Gal(b1-4)Glc
# Outline: as §1
# [23] = molecular target: Neu5Ac(a2-8)Neu5Ac(a2-3)[GalNAc(b1-4)]Gal(b1-4)Glc
# Outline: as §1
# [24] = molecular target: Neu5Ac(a2-8)Neu5Ac(a2-8)Neu5Ac
# Outline: as §1
# [25] = molecular target: Neu5Ac(a2-8)Neu5Ac(a2-8)Neu5Ac(a2-3)Gal(b1-4)Glc
# Outline: as §1
# [26] = molecular target: Neu5Ac(a2-8)Neu5Ac(a2-8)Neu5Ac(a2-3)[GalNAc(b1-4)]Gal(b1-4)Glc
# Outline: as §1
# [27] = molecular target: Neu5Ac(a2-8)Neu5Ac(a2-8)Neu5Ac(a2-8)Neu5Ac(a2-3)[GalNAc(b1-4)]Gal(b1-4)Glc
# Outline: as §1
# [28] = molecular target: Neu5Ac(b2-6)Gal(b1-4)GlcNAc
# Outline: as §1
# Neu5Ac(b2-6)GalNAc = molecular target: Neu5Ac(b2-6)GalNAc
# Outline: as §1
# [29] = molecular target: Neu5Ac9Ac(a2-3)Gal(b1-3)GlcNAc
# Outline: as §1
# [30] = molecular target: Neu5Ac9Ac(a2-3)Gal(b1-4)GlcNAc
# Outline: as §1
# [31] = molecular target: Neu5Ac9Ac(a2-6)Gal(b1-4)GlcNAc
# Outline: as §1
# [32] = molecular target: Neu5Gc(a2-3)Gal(b1-3)GlcNAc
# Outline: as §1
# [33] = molecular target: Neu5Gc(a2-3)Gal(b1-3)[Fuc(a1-4)]GlcNAc
# Outline: as §1
# Neu5Gc(a2-3)Gal(b1-4)Glc = molecular target: Neu5Gc(a2-3)Gal(b1-4)Glc
# Outline: as §1
# [34] = molecular target: Neu5Gc(a2-3)Gal(b1-4)GlcNAc
# Outline: as §1
# [35] = molecular target: Neu5Gc(a2-3)Gal(b1-4)[Fuc(a1-3)]GlcNAc
# Outline: as §1
# [36] = molecular target: Neu5Gc(a2-6)Gal(b1-4)GlcNAc
# Outline: as §1
# Neu5Gc(a2-6)GalNAc = molecular target: Neu5Gc(a2-6)GalNAc
# Outline: as §1
# [37] = molecular target: Neu5Gc(b2-6)Gal(b1-4)GlcNAc
# Outline: as §1
binder,measurement,setting,value
"StdA (Salmonella typhimurium), Q8Z3Z0 (protein) MAAAGMMYGASVFAADTTPTAGPFGSGKILFTGTITNSPCDIAPGDDAITVPFGQISYRKLNTANATTDSKPFTIHLQNCAFDPNETTIAGSAGKMSKVTVSFSGTADTSGKAYVSTGSAQHVGVQLLKGDNTSLITPNTPMPDGDAQQLQAGNNELNFFARLIALTDAATPGDVNASVTYTLKYL",glycan array binding signal (z-score),[1],0.634
same,glycan array binding signal (z-score),Neu5Ac(a2-6)Gal,-0.305
same,glycan array binding signal (z-score),Neu5Ac(a2-6)Gal(b1-4)Glc,-0.257
same,glycan array binding signal (z-score),[2],-0.291
same,glycan array binding signal (z-score),[3],-0.009
same,glycan array binding signal (z-score),[4],-0.251
same,glycan array binding signal (z-score),[5],0.231
same,glycan array binding signal (z-score),[6],0.147
same,glycan array binding signal (z-score),[7],-0.785
same,glycan array binding signal (z-score),[8],-0.397
same,glycan array binding signal (z-score),[9],-0.008
same,glycan array binding signal (z-score),[10],0.283
same,glycan array binding signal (z-score),[11],0.085
same,glycan array binding signal (z-score),[12],0.054
same,glycan array binding signal (z-score),[13],-0.819
same,glycan array binding signal (z-score),[14],-0.14
same,glycan array binding signal (z-score),[15],-0.081
same,glycan array binding signal (z-score),[16],0.009
same,glycan array binding signal (z-score),[17],0.149
same,glycan array binding signal (z-score),[18],-0.558
same,glycan array binding signal (z-score),Neu5Ac(a2-6)GalNAc,-0.979
same,glycan array binding signal (z-score),[19],-0.061
same,glycan array binding signal (z-score),[20],-0.256
same,glycan array binding signal (z-score),[21],0.072
same,glycan array binding signal (z-score),Neu5Ac(a2-8)Neu5Ac,-0.449
same,glycan array binding signal (z-score),[22],-0.042
same,glycan array binding signal (z-score),[23],-0.722
same,glycan array binding signal (z-score),[24],-0.667
same,glycan array binding signal (z-score),[25],0.246
same,glycan array binding signal (z-score),[26],-0.401
same,glycan array binding signal (z-score),[27],-0.385
same,glycan array binding signal (z-score),[28],-0.717
same,glycan array binding signal (z-score),Neu5Ac(b2-6)GalNAc,-0.236
same,glycan array binding signal (z-score),[29],-0.687
same,glycan array binding signal (z-score),[30],-0.108
same,glycan array binding signal (z-score),[31],1.09
same,glycan array binding signal (z-score),[32],-0.054
same,glycan array binding signal (z-score),[33],-0.195
same,glycan array binding signal (z-score),Neu5Gc(a2-3)Gal(b1-4)Glc,0.825
same,glycan array binding signal (z-score),[34],-0.622
same,glycan array binding signal (z-score),[35],-0.554
same,glycan array binding signal (z-score),[36],-0.03
same,glycan array binding signal (z-score),Neu5Gc(a2-6)GalNAc,-0.486
same,glycan array binding signal (z-score),[37],0.201
